Measured values reported in PubChem BioAssay AID485297 (National Center for Advancing Translational Sciences (NCATS), 2010).
About 9,100 (2.8%) of roughly 320,000 compounds were called active. Inconclusive results, whose numbers are uncertain, are shown with a selection of clear calls. Calls follow the shape of the dose curve; as a rule, active = well fitted activation curve with a large enough effect; inconclusive = small, poorly fitted or top-dose-only effect; inactive = no such curve, though single readings can be large or run the other way. No potency is given beside an inconclusive call; the fits are too rough.

Test: qHTS Assay for Rab9 Promoter Activators; also: nearly all actives have a fitted effect of over 60% in size
Settings: Huh7 Rab9 promoter-luciferase reporter, luminescence, 24 h; series mostly up to 9.22 µM
Method in brief: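 Luminescence from Amplite-detected luciferase (10 minutes, ambient) reports Rab9 promoter activation. Before that, stable Rab9-luciferase Huh7 cells (1500/well, reduced-serum OP-MEM I plus 10% FBS) were exposed to compound for 24 hours at 37C.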
Potency is read from the fitted curve at half-maximal effect; tags tell the direction and shape of the fitted curve.

Structure (SMILES)	Potency
COc1ccc(N/C=C\C(=O)c2ccc(Br)cc2)cc1OC	inconclusive [activator, single point]
Cc1ccc(C(=O)OCC(=O)NCc2cccs2)c(C)c1	inconclusive [activator, single point]
COc1ccc(/C=C/C(=O)Nc2cccc(C(C)=O)c2)cc1	inconclusive [activator, single point]
CC(=O)Nc1ccc(-c2nnc(SCC(=O)Nc3ccc4c(c3)oc3ccccc34)n2C)cc1	inconclusive [activator, single point]
CC(C)CCC(C)NC(=O)c1ccc2nccnc2c1 (stereo not given)	inconclusive [activator, single point]
CSCCNC(=O)c1ccc2nc(Cc3ccccc3F)oc2c1	active: 2.82 µM
O=C(COC(=O)c1cccnc1Cl)NCC1CCCO1 (stereo not given)	inactive
Brc1ccccc1-c1nc(-c2ccccc2)no1	active: 3.55 µM
CCN(CC)S(=O)(=O)c1cccc(C(=O)N/N=C/c2cccc(O)c2O)c1	inactive
COc1ccc(C(=O)Nc2cc(Cl)ccc2OC(=O)c2ccc(OC)cc2)cc1	inconclusive [activator, single point]
Cc1nc(NC(C)C)c2cnn(CCc3ccccc3)c2n1	inconclusive [activator, partial curve]
C=CCNC(=O)c1cc(-c2ccc(Br)cc2)on1	active: 0.794 µM
CCOc1ccc(C(C(=O)NC2CCCCC2)N(CCOC)C(=O)c2snc(C(N)=O)c2N)cc1 (stereo not given)	inactive
CC1CCC(NC(=O)c2cc3c(s2)CCCC3)CC1 (stereo not given)	inconclusive [activator, partial curve]
COc1ccc(-c2nc(CS(=O)CC(=O)NC3CCC(C)CC3)c(C)o2)cc1OC (stereo not given)	inconclusive [activator, partial curve]
COc1cccc(CNS(=O)(=O)c2cc(CN3C(=O)c4cccnc4C3=O)ccc2OC)c1	inconclusive [activator, single point]
CCCNc1ncnc2nc[nH]c12	inactive
CCOC(=O)c1c(C)[nH]c(C(=O)NCc2ccccn2)c1C	inconclusive [activator, single point]
CCOc1ccc(NC(=O)c2ccco2)c([N+](=O)[O-])c1	active: 1.58 µM
COc1cc(/C=N/O)ccc1OCc1ccc(Cl)cc1	active: 0.398 µM
Cc1cc(C(=O)Nc2cc(C)n(Cc3ccc(Cl)cc3)n2)no1	inactive
COc1ccc(C(=O)Cn2nnc(-c3cccs3)n2)cc1	active: 2.82 µM
c1ccc(Nc2nc(-c3cccs3)cs2)nc1	inconclusive [activator, single point]
O=C(/C=C/c1cccs1)c1ccc(N2CCOCC2)cc1	active: 2.24 µM
Cn1ncc([N+](=O)[O-])c1C(=O)Nc1ccc(-c2nc3ccccc3[nH]2)cc1	inconclusive [activator, partial curve]

Structure (SMILES)	Potency
O=C(NCCc1ccccc1)c1noc2c1CCCCC2	active: 3.55 µM
O=C(CCC1CCN(C(=O)c2ccccc2Cl)CC1)NCc1ccc(F)cc1	inactive
COC(=O)[C@H](Cc1ccccc1)NC(=O)c1cc(COc2c(F)cccc2F)on1	inconclusive [activator, partial curve]
Cc1nn(-c2ccccc2)cc1C(=S)Nc1ccccc1	inconclusive [activator, single point]
C[n+]1cc[nH]c1SCC(=O)c1ccc(Cl)cc1	inconclusive [activator, single point]
COc1ccc(Nc2nccc(-c3cccc(N)c3)n2)cc1	inconclusive [activator, single point]
COc1ccc(NC(=O)CSc2nc(N)c3cc4c(nc3n2)CCCC4)cc1	inconclusive [activator, single point]
CCOC(=O)N1CCC(NC(=O)c2cc3sccc3n2CC)CC1	inactive
O=C(O)c1cccc(N/N=C/c2cccs2)c1	inconclusive [activator, full curve, poor fit]
CN(Cc1ccccc1)C(=O)CCC(=O)N(C)Cc1ccccc1	inconclusive [activator, partial curve]
COc1ccc(Nc2ccc([N+](=O)[O-])cn2)cc1	inconclusive [activator, partial curve]
CC(NC(=O)c1cc(COc2cccc(C(F)(F)F)c2)on1)c1nccs1 (stereo not given)	active: 2.82 µM
O=C(Nc1nnc(-c2ccc(Br)cc2)o1)c1ccco1	inconclusive [activator, partial curve]
COc1ccc(C2CC2/C(=N/O)c2ccccc2)cc1 (stereo not given)	inconclusive [activator, single point]
Cc1nc(SCC(=O)N2c3ccccc3NC(=O)CC2C)c2c(C)c(C)sc2n1 (stereo not given)	inactive
CCOc1ccc(-c2nc(=S)[nH][nH]2)cc1	inconclusive [activator, partial curve]
CC(C)(C)NC(=O)CSc1nc2ccccc2c(=O)[nH]1	inconclusive [activator, partial curve, poor fit]
CN1CCN(c2ccc(S(=O)(=O)N3CCCCC3)cc2N)CC1	inactive
Cc1ccc(Cn2ncc3c(N4CCN(Cc5ccc(Cl)cc5)CC4)ncnc32)cc1	inactive
O=C1CCC/C(=N\NC(=O)c2ccc(COc3cccc4cccnc34)cc2)C1	inactive
O=[N+]([O-])c1cc(-c2ccc(/C=N/c3nc4ccccn4c3-c3ccco3)o2)ccc1Cl	inconclusive [activator, partial curve]
O=c1c2c3c(sc2nc2n1CCCCC2)CCCC3	inconclusive [activator, partial curve]
Cn1c(CCNS(=O)(=O)c2ccccc2)nnc1SCc1cccnc1	inactive
CCn1c(SCc2cccc(F)c2)nnc1-c1cccnc1	inactive
CCS(=O)(=O)c1ccc2oc(Nc3ccccc3C)nc2c1	active: 3.55 µM
